In PubChem BioAssay AID504332 (National Center for Advancing Translational Sciences (NCATS), 2011):
Out of some 350,000 compounds screened, about 31,000 (8.9%) were called active. Inconclusive means that the source gave no clear call. Such entries were picked first, then a sample of the others. The call rests on the fitted dose curve; in most records, active means well fitted inhibition curve with a large enough effect; inconclusive means small, poorly fitted or top-dose-only effect; inactive means no such curve, though single readings can be large or run the other way. Potencies of inconclusive entries are doubtful fits and often do not repeat.

Target: Histone-lysine N-methyltransferase EHMT2 (Homo sapiens) (UniProt Q96KQ7)
Chain of UniProt Q96KQ7 (Q96KQ7 whole entry, looked up): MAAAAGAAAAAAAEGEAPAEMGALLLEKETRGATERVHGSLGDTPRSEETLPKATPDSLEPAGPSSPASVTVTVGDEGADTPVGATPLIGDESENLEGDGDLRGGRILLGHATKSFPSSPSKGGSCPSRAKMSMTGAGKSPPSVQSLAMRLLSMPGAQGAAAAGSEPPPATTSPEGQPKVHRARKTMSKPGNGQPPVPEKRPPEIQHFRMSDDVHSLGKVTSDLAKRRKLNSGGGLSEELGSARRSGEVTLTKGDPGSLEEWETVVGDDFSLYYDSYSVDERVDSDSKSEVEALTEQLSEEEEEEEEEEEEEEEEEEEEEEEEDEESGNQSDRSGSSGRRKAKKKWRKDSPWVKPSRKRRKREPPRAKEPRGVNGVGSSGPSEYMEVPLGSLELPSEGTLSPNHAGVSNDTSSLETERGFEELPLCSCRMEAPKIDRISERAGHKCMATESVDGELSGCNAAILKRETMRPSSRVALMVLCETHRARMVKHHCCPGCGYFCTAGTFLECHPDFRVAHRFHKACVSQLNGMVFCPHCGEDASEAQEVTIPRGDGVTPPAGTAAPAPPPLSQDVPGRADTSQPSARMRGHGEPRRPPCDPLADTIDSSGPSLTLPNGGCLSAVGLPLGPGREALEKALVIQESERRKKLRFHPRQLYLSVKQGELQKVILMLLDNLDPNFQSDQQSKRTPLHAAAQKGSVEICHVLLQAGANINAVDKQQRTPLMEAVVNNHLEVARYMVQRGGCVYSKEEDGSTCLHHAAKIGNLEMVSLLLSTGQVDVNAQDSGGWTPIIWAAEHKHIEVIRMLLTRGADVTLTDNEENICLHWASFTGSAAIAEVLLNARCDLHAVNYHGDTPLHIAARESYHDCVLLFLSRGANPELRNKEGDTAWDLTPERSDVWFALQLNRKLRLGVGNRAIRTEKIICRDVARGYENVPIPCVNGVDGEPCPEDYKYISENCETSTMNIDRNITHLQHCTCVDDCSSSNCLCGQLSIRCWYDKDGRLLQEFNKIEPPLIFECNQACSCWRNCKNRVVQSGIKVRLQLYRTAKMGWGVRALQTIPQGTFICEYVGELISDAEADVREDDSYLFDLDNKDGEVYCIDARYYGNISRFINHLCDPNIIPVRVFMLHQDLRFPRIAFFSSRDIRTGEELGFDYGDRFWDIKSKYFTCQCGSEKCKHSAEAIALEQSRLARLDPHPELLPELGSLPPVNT
Assay: qHTS Assay for Inhibitors of Histone Lysine Methyltransferase G9a; further: nearly all actives have a fitted effect of over 75% in size
Settings: G9a H3K9 monomethylation, AlphaScreen, 2 h; activity, negative = inhibition: at 59 µM (top of the series) unless noted
How it was run: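 G9a (20 nM) was preincubated 15 min with compound, then reacted 2 h at room temperature with 500 nM biotin-H3K9 peptide and 20 µM SAM. Monomethyl-H3K9 detected by AlphaScreen using anti-H3K9me1 antibody.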
On the % scale 0 is the no-effect control and ±100 the full control effect; potency means the concentration at half of the fitted maximal effect; tags describe the fitted curve by direction and shape.

SMILES | Potency | activity, negative = inhibition
Cc1ccc(CNC(=O)CN(C)S(=O)(=O)c2ccc(Br)s2)cc1 | inactive | 
CCOc1ccc(NC(=O)c2ccc(NCC(=O)N3CCCCCC3)cc2)cc1 | active: 25.1 µM | 
O=C(Cc1ccc(Nc2nc3ccc(Br)cc3[nH]2)cc1)NCCc1cccs1 |  | inconclusive: -59.7% [inhibitor]
COc1ccc(-c2cn(-c3ccc(C)cc3)c(S(=O)(=O)CC(=O)Nc3ccccc3)n2)cc1 | inconclusive: 17.8 µM [inhibitor, partial curve, poor fit] | 
COc1cccc2cc(C(=O)NCCc3c[nH]c4ccccc34)c(=O)oc12 | inconclusive: 35.5 µM [inhibitor, partial curve, poor fit] | 
CCOc1ccccc1CNC(=O)CCCN1C(=O)COc2ccc(C)cc21 | inactive | 
Cc1noc(C(=O)Nc2c(C)nn(Cc3ccccc3)c2C)c1Cl | inconclusive: 89.1 µM [inhibitor, single point] | 
COc1cc2c3nnc(-c4ccc(F)cc4)c-3cn(Cc3cccc(F)c3)c2cc1OC | active: 44.7 µM | 
Cc1cc(C)c(NC(=S)N2CCC(N(C)CC3CCCO3)CC2)c(C)c1 (stereo not drawn) | inconclusive: 6.31 µM [inhibitor, single point] | 
CN(C)c1cccc(C(=O)NNC(=S)NC2CC3CCC2C3)c1 (stereo not drawn) | active: 50.1 µM | 
O=C(COC(=O)c1cccc2ccccc12)Nc1ncc(C(F)(F)F)cc1Cl | inconclusive: 89.1 µM [inhibitor, single point] | 
Cn1c(CO)c(-c2ccccc2)c2cc([N+](=O)[O-])ccc21 | inactive | 
COc1ccc(CCNC(=O)C2CCN(c3nccc(C)n3)CC2)cc1 | inactive | 
CC(C)Cn1c(=O)c2c(nc3n2CC(C)CN3Cc2ccccc2)n(C)c1=O (stereo not drawn) | inconclusive: 70.8 µM [inhibitor, single point] | 
COc1ccc(C/C(C)=N/NC(=S)Nc2ccc(Cl)cc2)cc1 | active: 7.08 µM | 
O=C1/C(=C/c2cccs2)SC(=S)N1CCCC(=O)N(CCO)c1ccccc1 | inactive | 
O=C1CN(S(=O)(=O)c2cc(C(=O)O)ccc2Cl)c2ccccc2N1 | inconclusive: 89.1 µM [inhibitor, single point] | 
O=C(O)c1cc2c([nH]c1=O)CCCC2 |  | inconclusive: -94.7% [inhibitor]
CC(C)(C)C(=O)NC(NC(=S)Nc1ccc(S(N)(=O)=O)cc1)C(Cl)(Cl)Cl (stereo not drawn) | inconclusive: 89.1 µM [inhibitor, single point] | 
CC1Cc2ccccc2N1C(=O)CSc1nc(-c2ccco2)cc(C(F)(F)F)n1 (stereo not drawn) | inconclusive: 31.6 µM [inhibitor, single point] | 
Cn1c(=O)c2c(nc(SCC(=O)NCc3ccc4c(c3)OCO4)n2Cc2ccc(F)cc2)n(C)c1=O | inconclusive: 22.4 µM [inhibitor, partial curve, poor fit] | 
c1nnc2c3c4c(sc3ncn12)CCC4 | inactive | 
COc1ccc(-c2nnc(SCC(=O)Nc3ccccc3C)o2)cc1OC | inconclusive: 15.8 µM [inhibitor, partial curve, poor fit] | 
COc1ccc(S(=O)(=O)Nc2ccc3c(c2)OCO3)cc1Cl |  | inconclusive: -67% [inhibitor]
Cc1ccc(-c2nc3cnccn3c2Nc2ccccc2)o1 | active: 7.94 µM | 

SMILES | Potency | activity, negative = inhibition
O=C(c1ccc(CS(=O)c2ccccc2Cl)o1)N1CCN(c2cccc(C(F)(F)F)c2)CC1 (stereo not drawn) | inconclusive: 25.1 µM [inhibitor, partial curve, poor fit] | 
Cc1cc(C(=O)COC(=O)Cc2n[nH]c(=O)c3ccccc23)c(C)n1-c1ccc2c(c1)OCO2 | inconclusive: 89.1 µM [inhibitor, single point] | 
CCCCC(=O)OCC(=O)c1[nH]c(C)c(C(C)=O)c1C | inactive | 
O=C1CC(=O)c2c1cccc2[N+](=O)[O-] | active: 10 µM | 
Cc1ccc(C)c(OCC(=O)Nc2nonc2NC(=O)COc2cc(C)ccc2C)c1 | active: 15.8 µM | 
C=CCn1c(SCC(=O)NNC(=S)Nc2ccccc2)nnc1-c1ccccc1 | inactive | 
O=c1ccc2cc(S(=O)(=O)Nc3ccccc3F)ccc2o1 | inconclusive: 12.6 µM [inhibitor, partial curve, poor fit] | 
c1ccc2c(c1)CNc1ccccc1C2 | inconclusive: 3.98 µM [inhibitor, single point] | 
O=S(=O)(c1ccc2nnn(O)c2c1)N1CCCCC1 | inconclusive: 1.58 µM [inhibitor, full curve, poor fit] | 
CCOc1cccc(OCCOCCN(C)C)c1 | active: 11.2 µM | 
CCn1cc(C(=O)NCCCN2CCCC2)c(=O)c2cc(S(=O)(=O)N3CCc4ccccc4C3)ccc21 | inconclusive: 44.7 µM [inhibitor, partial curve] | 
O=C(O)/C=C/C(=O)Nc1ccc(Cl)c(C(=O)O)c1 | inconclusive: 0.562 µM [inhibitor, full curve, poor fit] | 
O=S(=O)(c1ccccc1)c1nc(-c2cccs2)oc1N1CCCCC1 | inconclusive: 39.8 µM [inhibitor, partial curve, poor fit] | 
CC(NC(=O)c1ccc(CSc2nc3ccncc3n2Cc2ccc(F)cc2)cc1)c1ccccc1 (stereo not drawn) | inconclusive: 20 µM [inhibitor, single point] | 
COc1cc2c(cc1OC)CN(c1nc(-c3cccnc3)nc3ccccc13)CC2 | active: 50.1 µM | 
CCn1cc([N+](=O)[O-])c(C(=O)N2N=C(c3ccc(OC)cc3OC)CC2c2ccccc2O)n1 (stereo not drawn) | active: 44.7 µM | 
Cc1ccc2cccc(OCC(=O)Nc3cccc(S(=O)(=O)N4CCCC4)c3)c2n1 | inactive | 
Cc1ccc(S(=O)(=O)N2CCN(c3cc4c(cc3[N+](=O)[O-])n(C)c(=O)n4C)CC2)cc1 | inconclusive: 35.5 µM [inhibitor, full curve] | 
Cc1ccc2nc(-c3ccc(NC(=O)CSc4ccccc4)cc3)[nH]c2c1 |  | inconclusive: -61.1% [inhibitor]
Nc1c(C(=O)NCCc2ccccc2)sc2nc(N3CCOCC3)c3c(c12)CCCC3 | active: 15.8 µM | 
COCCNC(=S)N1CCN(c2nc(-c3ccccc3)cs2)CC1 | inconclusive: 89.1 µM [inhibitor, single point] | 
Oc1ccc(-c2n[nH]c(=S)n2Cc2ccco2)cc1 | active: 2.82 µM | 
O=[N+]([O-])C(=C1NCCN1)C(Cl)=C(Cl)Cl | active: 56.2 µM | 
CCOC(=O)c1c(NC(=O)CSc2nncs2)sc(C)c1-c1ccccc1 | inconclusive: 22.4 µM [inhibitor, single point] | 
CSc1ccccc1NC(=O)c1cccnc1 | inconclusive: 35.5 µM [inhibitor, single point] | 

SMILES | Potency | activity, negative = inhibition
CCOc1ccc(NC(=O)Cn2sc3nc(C)cc(C)c3c2=O)cc1 | active: 0.282 µM | 
O=C(CSC1=NS(=O)(=O)c2ccccc21)Nc1ccccc1 | active: 7.94 µM | 
COc1ccc(-n2c(=O)[nH]cc(C(=O)Nc3ccc4c(c3)OCCO4)c2=O)cc1OC | inconclusive: 89.1 µM [inhibitor, single point] | 
CCOC(=O)c1sc(NC(=O)CN(CC(C)C)CC(C)C)c(C(=O)OCC)c1C |  | inactive: 10.8% [at 12.7 µM]
O=c1[nH]c(CN2CCCC2)nc2sc3c(c12)CCC3 | active: 39.8 µM | 
Cc1ccc(C(=O)O/N=C(\N)Cc2cccs2)c(Cl)c1 | inactive | 
Brc1ccc(-n2cnc(-c3ccccc3)c2)cc1 | inconclusive: 79.4 µM [inhibitor, single point] | 
COC(=O)N1CCC2(CC1)CCN(c1ncccn1)CC2 |  | inactive: 0.909% [at 12.7 µM]
CCSc1ncc(/C=N/Nc2ccc(Cl)cc2)n1C | inconclusive: 7.94 µM [inhibitor, full curve, poor fit] | 
Cc1ccc(CSC2=Nc3ccccc3C3=NC(CC(=O)NCc4ccco4)C(=O)N23)cc1 (stereo not drawn) | inconclusive: 35.5 µM [inhibitor, single point] | 
COc1ccc(C(=O)Nc2cc(C)ccc2NC(=O)COc2ccccc2)cc1 | inactive | 
Cc1nc2cc(NC(=O)NC(C)(C)C)ccc2n1C |  | inactive: 8.85% [at 0.501 µM]
Cc1cccnc1NC(=O)c1ccccc1-c1ccccc1C(=O)Nc1ncccc1C | inactive | 
CC(C)c1ccc(S(=O)(=O)c2nnn3c2nc(N2CCOCC2)c2sccc23)cc1 | inactive | 
Cc1ccccc1OCC(=O)Nc1c(C)ccc2nsnc12 | inactive | 
COc1ccc(S(=O)(=O)N2CCCC2C(=O)Nc2nc3c(s2)CCCC3)cc1 (stereo not drawn) | inconclusive: 31.6 µM [inhibitor, partial curve, poor fit] | 
Cc1ccc(Nc2nc(N)nc(CN3CCCCCC3)n2)c(C)c1 | inconclusive: 8.91 µM [inhibitor, partial curve] | 
Cc1ccc2cc(C(c3nnnn3C(C)(C)C)N3CCCC3)c(=O)[nH]c2c1C (stereo not drawn) | active: 31.6 µM | 
CCOC(=O)N1CCc2c(sc3c2c(=O)n(-c2ccc(CC)cc2)c(=O)n3CC(=O)c2ccccc2)C1 | inconclusive: 31.6 µM [inhibitor, partial curve, poor fit] | 
CC(C)C(=O)N(c1ccc2oc(=O)sc2c1)S(=O)(=O)c1ccccc1 | active: 3.16 µM | 
Cc1[nH]c2ccccc2c1/C=N/NC(=O)Nc1ccccc1 | inactive | 
Clc1ccc(-c2nnc(-c3ccccc3)c(-c3c[nH]c4ccccc34)n2)cc1 | inconclusive: 63.1 µM [inhibitor, partial curve, poor fit] | 
COc1nc(N)nc2c1ncn2[C@@H]1O[C@H](CO)[C@@H](O)[C@@H]1O |  | inconclusive: -54.7% [inhibitor] [at 2.33 µM]
